# Source: paper PMC4336329 (PLoS ONE, 2015)
# The whole screen tested about 310,000 compounds, of which about 14,000 (4.5%) showed an effect of 50% or more. The effect is printed as a negative number. This is one part of the list.
# Molecular target: human ether-à-go-go-related gene (hERG) potassium channel (human, UniProt Q12809)
# Test: primary screen, population patch clamp on CHO cells stably expressing hERG
# 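Further: peak tail current of the secondary pulse compared with the same well before compound.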
# Chain of human ether-à-go-go-related gene (hERG) potassium channel (Q12809 whole entry, looked up): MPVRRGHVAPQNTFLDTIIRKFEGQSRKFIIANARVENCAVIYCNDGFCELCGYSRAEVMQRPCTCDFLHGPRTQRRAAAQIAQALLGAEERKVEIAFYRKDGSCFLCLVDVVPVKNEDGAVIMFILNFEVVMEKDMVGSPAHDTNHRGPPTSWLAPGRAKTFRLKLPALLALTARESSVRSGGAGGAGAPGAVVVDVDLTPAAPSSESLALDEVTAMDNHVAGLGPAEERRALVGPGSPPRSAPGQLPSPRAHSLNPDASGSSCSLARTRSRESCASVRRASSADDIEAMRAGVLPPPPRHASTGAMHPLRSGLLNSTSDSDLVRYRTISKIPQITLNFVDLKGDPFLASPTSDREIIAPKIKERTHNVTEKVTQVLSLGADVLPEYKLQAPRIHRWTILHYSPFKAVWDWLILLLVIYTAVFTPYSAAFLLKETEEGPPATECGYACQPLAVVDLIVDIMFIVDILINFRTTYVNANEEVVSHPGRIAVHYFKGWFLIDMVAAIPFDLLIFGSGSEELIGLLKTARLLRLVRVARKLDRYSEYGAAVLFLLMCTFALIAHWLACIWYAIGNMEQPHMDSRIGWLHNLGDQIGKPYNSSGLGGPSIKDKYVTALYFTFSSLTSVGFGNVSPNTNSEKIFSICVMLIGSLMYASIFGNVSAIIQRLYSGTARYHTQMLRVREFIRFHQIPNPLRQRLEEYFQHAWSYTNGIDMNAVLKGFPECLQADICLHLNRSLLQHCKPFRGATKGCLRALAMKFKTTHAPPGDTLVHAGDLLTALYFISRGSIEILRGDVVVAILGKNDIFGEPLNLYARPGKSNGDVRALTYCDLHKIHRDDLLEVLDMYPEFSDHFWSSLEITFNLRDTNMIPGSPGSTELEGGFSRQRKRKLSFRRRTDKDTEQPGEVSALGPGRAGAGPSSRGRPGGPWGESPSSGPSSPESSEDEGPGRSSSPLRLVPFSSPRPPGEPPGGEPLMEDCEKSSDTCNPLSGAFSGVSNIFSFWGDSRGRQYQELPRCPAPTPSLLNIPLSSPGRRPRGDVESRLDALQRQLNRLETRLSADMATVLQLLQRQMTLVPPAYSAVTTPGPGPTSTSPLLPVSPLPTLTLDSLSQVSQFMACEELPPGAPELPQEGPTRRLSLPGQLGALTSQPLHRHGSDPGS
row,SMILES,"hERG current change (%, negative = inhibition) at 10uM"
1,CCN(CC)C(=O)Oc1ccccc1NC(C)=O,11.2%
2,O=C(Nc1ccccc1C(=O)O)c1cccc(NC(=O)c2ccco2)c1,20.8%
3,Cc1ccc(S(=O)(=O)N2CCOC23CCN(S(=O)(=O)c2c(C)cc(C)cc2C)CC3)cc1,-3.06%
4,Cc1[nH]c2ccccc2c1C(=O)CN1C(=O)C(=O)N(C2CCCC2)C1=O,5.99%
5,CC(C)Oc1ccc(CN2CCC(n3nccc3NC(=O)c3cccnc3)CC2)cc1,-70.4%
6,CN(C)C(=O)C(NC(=O)c1ccccc1)=C(Cl)Cl,24.4%
7,CC12CC3CC(C)(C1)CC(N)(C3)C2.O=[N+]([O-])O,-2.79%
8,O=C(C1CCCC1)N1CCN(S(=O)(=O)c2ccc(Cl)cc2)CC1,-3.87%
9,O=c1ccc(/C=C/c2ccccc2)nn1Cc1ccc(Cl)cc1Cl,8.47%
10,CN(C)S(=O)(=O)c1ccc(NC(=O)COC(=O)CC2CC3CCC2C3)cc1 (stereo not shown),-9.56%
11,CCCCN(C)CC(O)Cn1cc(/C=C/C(=O)c2cccs2)c2ccccc21 (stereo not shown),-33.7%
12,CCc1ccc(NC(=O)COC(=O)C2(c3ccc(Cl)cc3)CCCC2)cc1,11.4%
13,CN1CCc2c(sc3nc(NN)n(Cc4ccccc4)c(=O)c23)C1,2.12%
14,Cc1ccc(-c2noc(CCC(=O)Nc3cc(C)ccn3)n2)cc1,9.8%
15,CC(C)Cn1c(/C=C/c2ccco2)nc2ccccc21,5.62%
16,COc1cccc(OC)c1CNC(=O)CCSCc1ccccc1F,-28.6%
17,O=c1oc2cc(Oc3c([N+](=O)[O-])cc(C(F)(F)F)cc3[N+](=O)[O-])ccc2c2c1CCCC2,1.74%
18,CSc1ncccc1C(=O)N1CCN(S(=O)(=O)c2ccccc2)CC1,19.8%
19,O=S(=O)(Nc1cccc(-c2cn3c(n2)SCC3)c1)c1ccc(F)cc1F,-4.11%
20,CCOC(=O)C(C)Sc1ncnc2nc[nH]c12 (stereo not shown),-5.74%
21,O=C1c2ccccc2C(=O)N1Cc1cc(-c2ccccc2)no1,4.92%
22,O=C(Nc1ccc2c(c1)Cc1ccccc1-2)c1ccco1,-2.2%

row,SMILES,"hERG current change (%, negative = inhibition) at 10uM"
1,Cl.OC(CNC1CCCC1)COc1ccc(-c2ccccc2)cc1 (stereo not shown),-51.8%
2,Cc1ccc2nc(C)cc(N/N=C/c3ccccc3O)c2c1,2.38%
3,Cc1ccc(SCCCn2cnc3ccccc3c2=O)cc1,-49.8%
4,Cc1ccc(OCCNC(=O)c2ccc(C)o2)cc1,-9.65%
5,CCOC(=O)N1CCN(C(=O)c2cccc(N3C(=O)NC4CC3(C)Oc3ccccc34)c2)CC1 (stereo not shown),6.28%
6,Cc1cc(C)cc(OCC(=O)OCC(=O)c2ccc3c(c2)NC(=O)CO3)c1,17.4%
7,CC(=O)OCC[C@H](NS(=O)(=O)OCC(Cl)(Cl)Cl)c1ccccc1,1.61%
8,COc1ccc(OCCNC(=O)c2cccc(Oc3ccc(C(F)(F)F)cc3[N+](=O)[O-])c2)cc1,10.7%
9,O=C(CNCc1cccs1)Nc1ccc(N2CCCCCC2)cc1.O=C(O)C(=O)O,-24.6%
10,CCc1cc2c(=O)[nH]c(N3CCCC3)nc2s1,4.77%
11,CCCN(CC(=O)Nc1ccccc1OC)C(=O)c1cc(-c2cccs2)nn1-c1ccccc1,-9.02%
12,COc1ccc2c(c1)c(=O)oc1cc(OCC(=O)N3CCC(C)CC3)ccc12,0.938%
13,CCN1CCN(c2ccc(S(=O)(=O)N3CCCCC3)cc2NC(=O)c2ccccc2)CC1,-46%
14,CC1Cc2cc(/C=C3/SC(=S)NC3=O)ccc2O1 (stereo not shown),-3.36%
15,COC(=O)C1=C(c2cc3ccccc3s2)C[C@@H]2CC[C@H]1N2C(=O)N1CCCC1,-19.7%
16,CC(C)C1OC2c3cccc4cccc(c34)C2N1c1ccccc1 (stereo not shown),19.3%
17,Cc1cc(OCC(=O)NCCO)cc(C)c1Cl,5.16%
18,CCOC(=O)c1cccc(Nc2ncnc3ccccc23)c1.Cl,-24.9%
19,N#CCOC(=O)c1cc(S(=O)(=O)N2CCCCC2)ccc1N1CCOCC1,-21.4%
20,CC(C)(C)c1ccc(COc2ccsc2C(=O)O)cc1,-6.72%
21,O=C(NCc1ccccn1)C1CCN(S(=O)(=O)c2ccccc2)CC1,15.4%
